Results reported in PubChem BioAssay (NCI).
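Each compound was tested at five concentrations against cells in 96-well plates for 48 hours. GI50 = concentration required for 50% inhibition of growth. TGI: total growth inhibition.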

What follows are molecules tested on NCI-H322M lung (assay: inhibition of tumour cell growth, NCI panel, 48 h).

Row | Compound | TGI [µM] | GI50 [µM]
1 | C[C@]12CCC(=O)C=C1CC[C@@H]1[C@@H]2CC[C@]2(C)C(=O)/C(=C\c3ccccc3)C[C@@H]12 | > 100 | –
2 | CCC1=C[C@H]2CN(CCc3c([nH]c4ccccc34)[C@@](C(=O)OC)(c3cc4c(cc3OC)N(C)[C@H]3[C@@](O)(C(=O)OC)[C@H](OC(C)=O)[C@]5(CC)[C@@H]6C[C@@H]6CN6CC[C@]43[C@@H]65)C2)C1 | 10.2 | 0.0952
3 | O=C(/C=C/c1ccc2c(c1)OCO2)c1ccccc(=O)c1O | 45.7 | –
4 | CC[C@@H]1C[C@@H](O)[C@@H]2[C@H](O)[C@H](O)CN2C1 | > 100 | –
5 | COc1ccc2c(c1)N(CCO)C1=C(C(=O)OC1)C2c1cccc(Br)c1 (stereo not drawn) | > 100 | 0.55
6 | COc1ccc(N=C2C(=Nc3ccc(OC)cc3)N(c3ccccc3[N+](=O)[O-])C(=S)N2c2ccc(OC)cc2)cc1 | > 100 | –
7 | O=C(O)C1CCCN1Cc1ccc2c(c1)OCO2 (stereo not drawn) | > 100 | –
8 | CC(=O)/C=C/c1ccc(N(C)Cc2ccc(C(C)(C)C)cc2)cc1 | 477 | 191
9 | COc1ccc2nc(-c3ccc(O)cc3)cn2c1 | > 100 | –
10 | Cc1cc(NC(=O)C(=O)Cc2nc3ccccc3s2)ccc1Cl | > 100 | –
11 | O=C(Nc1cccc2ccccc12)c1cc2ccccc2cc1O | 6.77 | 2.39
12 | C(=N/Nc1ccccn1)/c1cccnc1 | > 100 | –
13 | O=S(=O)(c1ccccc1)C1CN(Cc2ccccc2)CCN(Cc2ccccc2)C1 | > 100 | –
14 | C#CCOc1c(OC)cc(C(=O)/C(C)=C/c2cccc(N=[N+]=[N-])c2)cc1OC | > 100 | 0.675
15 | Nc1nc(Cl)cc(NCC2(CO)CCC(OCc3ccccc3)C2)n1 (stereo not drawn) | 74.2 | –
16 | O=CN/C=C/c1ccccc1O | > 100 | –
17 | C/C(CC(=O)Nc1ccc([N+](=O)[O-])cc1)=N/N=C(N)N | > 100 | –
18 | COC(=O)[C@]1(C)CCC[C@]2(C)C3CC4OOC3(C=C4C(C)C)CCC21 (stereo partly drawn) | 55.9 | –
19 | O=C(Nc1ncc(Cc2ccc(Cl)cc2)s1)c1ccc2c(c1)OCCO2 | > 100 | 0.0726
20 | O=c1nc2[nH]nc(-c3ccccc3)c2n[nH]1 | > 100 | –
21 | COC(C(=O)[C@@H](O)[C@@H](C)O)[C@@H]1Cc2cc3cc(O[C@H]4C[C@@H](O[C@H]5C[C@@H](O)[C@H](O)C(C)O5)[C@H](O)C(C)O4)c(C)c(O)c3c(O)c2C(=O)[C@H]1O[C@H]1C[C@@H](O[C@H]2C[C@@H](O[C@H]3C[C@@H](O)[C@@H](O)C(C)O3)[C@@H](O)C(C)O2)[C@H](O)C(C)O1 (stereo partly drawn) | > 32.5 | 0.209
22 | CN(CCNC(=O)c1cc(-c2ccccc2)nc2ccccc12)CCNC(=O)c1cc(-c2ccccc2)nc2ccccc12 | > 100 | –
23 | O=C1/C(=C/c2cccc3ccccc23)Cc2ccccc21 | > 100 | –
24 | COc1ccc(OC)c2c3c(ncc12)-c1cc2c(cc1C3)OCO2 | > 100 | > 100

Row | Compound | TGI [µM] | GI50 [µM]
25 | CC(=O)O[C@H]1C(=O)[C@@]2(C)[C@H]([C@H](OC(=O)c3ccncc3)[C@]3(O)C[C@H](OC(=O)[C@H](O)[C@@H](NC(=O)c4ccccc4)c4ccccc4)C(C)=C1C3(C)C)[C@]1(OC(C)=O)CO[C@@H]1C[C@@H]2O | > 25 | –
26 | CCNC(=O)Cc1nc2c(=O)[nH]cnc2n1C1OC(CO)C(O)C1O (stereo not drawn) | > 100 | –
27 | O=C1C=Cc2c(I)sc(I)c21 | > 100 | –
28 | O=C(CCc1cc(-c2ccco2)n(-c2ccc([N+](=O)[O-])cc2[N+](=O)[O-])n1)Nc1ccccc1 | > 100 | –
29 | CC1=NN(c2ccccc2)C(=O)C1C(=O)C(=O)Nc1ccc(C)cc1C (stereo not drawn) | > 100 | –
30 | O=C1C=CC(=O)N1CCCCCCCCCCN1C(=O)C=CC1=O | > 100 | 31.9
31 | CC(=O)O[C@@H]1CC(=O)O[C@@H]2C[C@@H](CC/C(Cl)=C/C/C=C\1C)O[C@@H]2CO | > 5.12 | –
32 | N#Cc1ccccc1/C=N/O | > 100 | –
33 | COc1cc2c(cc1OC)C(=O)/C(=C/c1ccccc1)C2 | > 100 | –
34 | C/C(=C\c1ccc2c(c1)OCO2)[N+](=O)[O-] | 30.1 | –
35 | CN(C)N1C(=O)CC2(CCN(CCCC(=O)c3ccc(F)cc3)CC2)C1=O | > 100 | –
36 | O=C1NCN(c2ccccc2)C12CCN(CCCSc1ccc(F)cc1)CC2 | > 100 | –
37 | O=C(CN1CCCC1)Nc1ccc2sc3ccccc3c(=O)c2n1 | 54.3 | –
38 | Cc1cc2c(=O)cc(-c3ccc(C(=O)O)cc3)oc2c(C(=O)O)c1C | > 100 | –
39 | COc1cc2c(cc1C)NC(=O)/C2=C/c1c(C)nc2sc(C)cn12 | > 100 | 92.5
40 | CO/N=C/c1c(-c2ccc(Cl)cc2)c(/C=N/OC)n2c1sc1ccccc12 | > 100 | –
41 | O=C1CCC2(c3ccc(F)cc3)Nc3ncncc3N12 (stereo not drawn) | > 10 | –
42 | COc1ccc(C2SC(C)C(=O)N2NC(=O)C(O)c2ccccc2)cc1 (stereo not drawn) | > 100 | 51.4
43 | N=c1c2ccccc2nc2oc3ccc(Cl)cc3n12 | > 100 | –
44 | [O-][n+]1onc2c1-c1nonc1CC2 | 93 | –
45 | COc1cc(C2SC(N)=Nc3c2c(C)nn3C(=O)Cc2ccccc2)ccc1O (stereo not drawn) | > 100 | –
46 | O=C1c2cccnc2-c2nccc3ccnc1c23 | 23.1 | –
47 | O=C1/C(=C/c2ccc(O)cc2)CCc2ccccc21 | > 96.2 | –
